# Test results as given in paper PMC4336329 (PLoS ONE, 2015).
# Hit rate of the full screen: of about 310,000 compounds, about 2,200 (0.71%) showed an effect of 50% or more. Effects have a minus sign here. The list shows a part of the results.
# Biological target: human ether-à-go-go-related gene (hERG) potassium channel (human, UniProt Q12809)
# Assay: primary screen, population patch clamp on CHO cells stably expressing hERG
# Chain of human ether-à-go-go-related gene (hERG) potassium channel (Q12809 whole entry, looked up): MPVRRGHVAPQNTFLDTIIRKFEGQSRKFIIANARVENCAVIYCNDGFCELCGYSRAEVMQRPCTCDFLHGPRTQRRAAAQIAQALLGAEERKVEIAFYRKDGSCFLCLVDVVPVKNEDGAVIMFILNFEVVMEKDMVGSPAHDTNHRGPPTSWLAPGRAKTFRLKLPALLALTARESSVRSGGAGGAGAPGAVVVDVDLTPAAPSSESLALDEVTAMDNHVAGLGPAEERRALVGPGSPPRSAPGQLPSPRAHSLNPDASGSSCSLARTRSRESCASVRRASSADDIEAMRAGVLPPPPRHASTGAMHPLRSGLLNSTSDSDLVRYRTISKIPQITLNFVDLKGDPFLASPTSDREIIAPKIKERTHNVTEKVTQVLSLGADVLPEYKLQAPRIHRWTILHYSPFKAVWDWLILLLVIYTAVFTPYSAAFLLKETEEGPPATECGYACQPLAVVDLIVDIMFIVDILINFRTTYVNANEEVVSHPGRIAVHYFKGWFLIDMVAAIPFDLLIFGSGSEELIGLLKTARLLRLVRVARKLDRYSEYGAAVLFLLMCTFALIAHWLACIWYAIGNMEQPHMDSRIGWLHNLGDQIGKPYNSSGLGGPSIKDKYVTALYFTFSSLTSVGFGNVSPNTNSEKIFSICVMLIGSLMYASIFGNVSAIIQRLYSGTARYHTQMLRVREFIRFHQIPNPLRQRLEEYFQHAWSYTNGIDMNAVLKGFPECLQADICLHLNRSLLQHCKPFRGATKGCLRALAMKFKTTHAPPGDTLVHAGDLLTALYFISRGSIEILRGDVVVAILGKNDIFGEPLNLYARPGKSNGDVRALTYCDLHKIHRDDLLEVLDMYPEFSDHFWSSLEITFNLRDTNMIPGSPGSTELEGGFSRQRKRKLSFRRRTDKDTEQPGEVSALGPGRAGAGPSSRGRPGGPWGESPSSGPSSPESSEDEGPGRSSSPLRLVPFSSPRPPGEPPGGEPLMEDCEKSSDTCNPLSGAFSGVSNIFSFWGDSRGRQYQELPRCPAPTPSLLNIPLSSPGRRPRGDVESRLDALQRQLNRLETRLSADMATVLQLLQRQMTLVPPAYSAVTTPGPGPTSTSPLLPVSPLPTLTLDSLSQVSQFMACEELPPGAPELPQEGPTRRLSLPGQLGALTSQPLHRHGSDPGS
row,Structure (SMILES),"hERG current change (%, negative = inhibition) at 1uM"
1,CN1CCCCC1c1ccc(-c2cccnc2)nc1.Cl (centres unmarked),8.58%
2,O=S(=O)(NCC1CCCO1)c1ccc(S(=O)(=O)N2CCc3ccccc3C2)cc1 (centres unmarked),20%
3,COc1nc(N(C)C)nc(N(C)c2cc(Cl)cc(Cl)c2)n1,8.94%
4,COc1cc(NC(=S)NCC2CCCO2)c(OC)cc1Cl (centres unmarked),5.47%
5,C[C@H]1CC[C@]2(O[C@@H](CCO)C[C@H](O)[C@H]2O)O1,18.4%
6,O=c1[nH]c(=O)c2nnc(N/N=C/c3ccccc3F)nc2[nH]1,13.2%
7,O=C1/C(=C\c2ccco2)SC(=S)N1c1ccccc1,5.94%
8,CCCc1nc(NCc2ccccn2)c2nnn(Cc3ccccc3F)c2n1,10.7%
9,O=C(NC1CCCCC1)c1cc(-c2cccs2)on1,4.69%
10,COCCNC(=O)COc1ccccc1Cl,11.7%
11,Nc1c(Cl)cc2c(c1Oc1ccccc1)C(=O)c1ccccc1C2=O,11.2%
12,O=c1[nH]cnc2ccsc12,16.5%
13,O=C(NCCCN1CCC(Cc2ccccc2)CC1)C1CCN(S(=O)(=O)N2CCC3(CC2)OCCO3)CC1,7.63%
14,Cc1cc(=O)oc2cc(OCC(=O)NCC3CCC(C(=O)O)CC3)ccc12 (centres unmarked),17.2%
15,O=C(COc1ccccc1F)c1ccc(O)cc1O,-15.1%
16,CC1=Nc2nc(N3CCCCCC3)c(C#N)c3c4c(nc(c23)N1)N(c1ccc2ccccc2c1)C(=O)C4.CN(C)C=O,16.3%
17,Cc1ccc(S(=O)(=O)N2CCOCC2)cc1C(=O)Nc1ccc2c(c1)OCCO2,2.29%
18,O=C(CN1CCCC1)Nc1ccc([N+](=O)[O-])cc1Cl,1.33%
19,COc1ccc(CN(C)C(C)C(=O)Nc2ccc(S(=O)(=O)N3CCOCC3)cc2)c(OC)c1 (centres unmarked),7.51%
20,COc1ccc(OC)c(N(CC(=O)Nc2cccc3ccccc23)S(C)(=O)=O)c1,9.21%
21,O=[N+]([O-])c1c(Nc2ccccc2)ccc2nonc12,9.18%
22,O=c1c2ccccc2nnn1CSc1ncnc2ccccc12,11.8%
23,N#Cc1c(SCC(N)=O)nc2c(c1-c1ccncc1)CCCC2,1.33%

row,Structure (SMILES),"hERG current change (%, negative = inhibition) at 1uM"
1,COc1ccc(CCN(C(=O)c2ccc(F)cc2)C2=CC3CCC(C2)N3C)cc1OC.Cl (centres unmarked),-22.6%
2,Cc1cc(NC(=O)c2cccc(Cl)c2)n[nH]1,6.2%
3,CCC(=O)N(C)CCc1cc2c(c(OC)c1/C=N/NC(=O)c1ccncc1)OCO2,8.99%
4,C/C(=N\NC(=O)C1CC1c1ccccc1)c1ccc(C)s1 (centres unmarked),5.29%
5,CCOC(=O)/C(C#N)=c1/s/c(=C2\C=Cc3ccccc3N2CC)c(=O)n1CC,8.73%
6,COc1ccccc1/C=N/NC(=O)c1cccc2ccccc12,13.4%
7,Cc1cc(C)cc(NC(=O)c2ccc(Cn3nc(C)c(Cl)c3C)o2)c1,11.4%
8,c1cnc2c(SCc3ccc(-c4nnco4)cc3)cccc2c1,9.22%
9,O=C1CC(C2CCCO2)C(=O)N1Cc1ccccc1 (centres unmarked),5.53%
10,O=C(Cn1nc(-c2ccccc2)ccc1=O)Nc1ccc(N2CCN(C(=O)c3ccccc3)CC2)cc1,-2.31%
11,c1ccc(-c2cc(N3CCOCC3)nc(-c3ccccc3)n2)cc1,0.549%
12,O=C(/C=C/c1ccc(F)cc1)N1CC[C@@]2(O)CCCC[C@H]2C1,8.98%
13,Cc1csc(NC(=O)c2cc([N+](=O)[O-])cc([N+](=O)[O-])c2)n1,11.7%
14,CCOC(=O)c1c(C)n(C)c2cc(-c3ccc(C)cc3)c(O)cc12,9.68%
15,NC(=O)c1ccsc1NC(=O)COC(=O)c1cnccn1,10.5%
16,O=C(CSc1ncn(-c2ccccc2)n1)Nc1nccs1,8.99%
17,O=C(c1cnc(N2CCN(c3ncccn3)CC2)c2ccccc12)N1CCN(c2ncccn2)CC1,3.66%
18,CC(=O)NCCCOc1ccc([N+](=O)[O-])cc1Cl,7.57%
19,O=C(c1cc2ccccc2o1)N1CCN(c2ccccc2Cl)CC1,3.51%
20,CN1CCc2nc(SCc3ccc(C(C)(C)C)cc3)c(C#N)cc2C1,9.74%
21,Cc1ccccc1-c1nnc(SCC(=O)c2c(N)n(C3CC3)c(=O)[nH]c2=O)o1,14.1%
22,CC(=O)N1CCc2cc(S(=O)(=O)NC(C(=O)NCc3ccccc3)C(C)C)ccc21 (centres unmarked),-0.474%
23,CCCCSc1nnc(-c2ccc(C)cc2)n1C,-10.9%

row,Structure (SMILES),"hERG current change (%, negative = inhibition) at 1uM"
1,CCCCn1c(SCC(=O)Nc2cc(C)on2)nc2ccccc2c1=O,-2.5%
2,CN(c1ccc(C(=O)NC2CCCC2)cc1)S(=O)(=O)c1ccc(Cl)cc1,11.9%
3,COc1ccccc1-c1nc2ccccc2nc1-c1ccccc1,12.5%
4,Cc1ccc(SCCOCCN2CC(C)OC(C)C2)cc1.Cl (centres unmarked),9.17%
5,Nc1nc(-c2cc3c(cc2Cl)OCCO3)cs1,10.1%
6,CCC(C)[C@H](NC(=O)Nc1cccc(Cl)c1)C(=O)O (some centres unmarked),13.6%
7,O=C(c1ccccc1F)N1CCN(c2ccccc2F)CC1,7.47%
8,CN(Cc1ccccc1)CC(O)COc1ccc(CNCc2cccnc2)cc1 (centres unmarked),9.4%
9,CCOC(=O)Cc1csc(NC(=O)COc2ccc(C)cc2)n1,10.3%
10,COc1ccccc1CNC(=O)C1CCC1,1.49%
11,CC(C)(O)c1[nH]c2cc(C(F)(F)F)ccc2c1C(C)(C)O,9.74%
12,COc1cc([N+](=O)[O-])ccc1NC(=O)NCC1CCN(Cc2ccc(Cl)cc2)CC1,-6.52%
13,COc1ccc(/C=C\c2onc(C)c2S(=O)(=O)N2CCC(C(=O)NCCC(C)C)CC2)cc1,-2.49%
14,Cn1c(=O)c2c(ncn2CC(=O)Nc2nc(-c3ccc(F)c(F)c3)cs2)n(C)c1=O,8.32%
15,CCOc1ccc(NC(=O)c2cccnc2Cl)c([N+](=O)[O-])c1,3.71%
16,C#CCOCCOCCOCCNc1nc(N2CCN(C(=O)[C@H]([C@@H](C)CC)n3cc([C@@H](N)CO)nn3)CC2)nc(N2CCN(C(=O)[C@H]([C@@H](C)CC)n3cc([C@@H](N)Cc4ccc(O)cc4)nn3)CC2)n1.Cl,7.95%
17,COc1ccc(/C=N/Nc2ncccc2[N+](=O)[O-])c(OC)c1,9.88%
18,Cc1ccc(-c2nn3c(C)nnc3s2)cc1NC(=O)CSc1ccc(Cl)cc1,7.83%
19,CCC1CCc2c(sc3ncnc(N4CCOCC4)c23)C1 (centres unmarked),1.5%
20,COc1ccc(CCNc2ccncn2)cc1.Cl,7.44%
21,O=C(CSc1nnc(COc2ccc(Cl)cc2)o1)N1CCCC1,2.66%
22,O=C(/C=C/c1ccccc1)N1CCN(c2c(Cl)cccc2[N+](=O)[O-])CC1,1.18%
23,CCOC(=O)N1CCN(C(=O)C2CCCN(S(=O)(=O)c3ccc(OCC)cc3)C2)CC1 (centres unmarked),2.25%

row,Structure (SMILES),"hERG current change (%, negative = inhibition) at 1uM"
1,COC(=O)c1cn(C(=O)c2ccco2)c2ccccc12,8.62%
2,O=C1CCN(S(=O)(=O)c2ccccc2)CCN1CCOCc1ccccc1,8.85%
3,CC1(C(=O)NC2CCCCC2)CCC(=O)N1Cc1ccc2c(c1)OCO2 (centres unmarked),6.04%
4,CCCCN1C(=O)C(O)(CC(=O)c2c(C)coc2C)c2ccccc21 (centres unmarked),-4.55%
5,COc1ccccc1C/C(N)=N/OC(=O)/C=C/c1ccccc1,10.9%
6,CN1CC2([N+](=O)[O-])CC=C(Cl)C([N+](=O)[O-])(C1)C2 (centres unmarked),6.24%
7,FC(F)(F)c1cc(-c2ccccc2)nc2nc(N3CCOCC3)sc12,5.51%
8,COc1ccc(Cn2ccnc2SCC(=O)Nc2cccc(NC(C)=O)c2)cc1,10.8%
9,CCOC(=O)c1c(NC(=O)COC(=O)/C=C/c2ccccc2)sc(C(=O)NC)c1C,10.8%
10,Clc1ccc(OCCNCCc2ccccc2)cc1.O=C(O)C(=O)O,-4.03%
11,Cc1nn(Cc2ccccc2)c(C)c1C(=O)OCC(=O)c1cc(C)n(CC(F)(F)F)c1C,11.6%
12,O=C(c1ccccc1)N1CCN(C(=O)c2cccnc2)CC1,14%
13,COC(=O)[C@H](C)NC(=O)NCc1ccccc1F,8.59%
14,N/N=C(\Cc1cscn1)c1ccc(O)cc1O,12.8%
15,CC(C)c1ccc(-c2nnn(Cc3nc4ccccc4s3)n2)cc1,6.89%
16,O=[N+]([O-])c1cccc(/C=N/N2CCN(Cc3ccc(Cl)cc3)CC2)c1,10.7%
17,Cc1ccc2cc(C#N)c(N3CCCN(C(=O)C4CCCO4)CC3)nc2c1C (centres unmarked),-4.98%
18,Cc1csc(=O)n1CCC(=O)OCC(=O)Nc1ccc(C(N)=O)cc1,14.5%
19,CSc1nsc(SCC(=O)N2CCc3ccccc32)n1,12.7%
20,CCCCCCOc1ccc(/C=c2\s/c(=C(/C#N)C(=O)NCc3ccco3)n(-c3ccccc3)c2=O)cc1,16%
